In US20210047394A1 (Hoffmann-La Roche, published 2021):

Columns and labels:
[1] = biological target: T1, huVEGF121 (R&D Systems, UK, Cat. No. 298-VS) (human, UniProt P15692-9 27-147); assay: inhibition of huVEGF121 binding to coated hVEGF-R (ELISA)
T1 construct: domain: VEGF121; also called hVEGF
T1 sequence (looked up): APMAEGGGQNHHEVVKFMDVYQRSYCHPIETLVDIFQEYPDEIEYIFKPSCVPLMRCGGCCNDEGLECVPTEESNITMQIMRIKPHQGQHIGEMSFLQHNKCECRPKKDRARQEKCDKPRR

[2] = biological target: T2, rhVEGF (R&D Systems Cat. No. 293-VE) (human, UniProt P15692 181-395); assay: SPR (Biacore T100), antibody captured via anti-hIgG-Fc, VEGF analyte, 25 C
T2 construct: Analyte in the Biacore assays; also called VEGF-A
T2 sequence: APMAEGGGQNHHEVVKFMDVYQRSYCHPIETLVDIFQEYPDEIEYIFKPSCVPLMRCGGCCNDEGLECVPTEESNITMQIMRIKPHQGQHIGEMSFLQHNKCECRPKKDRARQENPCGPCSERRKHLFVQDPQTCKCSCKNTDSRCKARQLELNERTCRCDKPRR

- IC50 [1]: 2.31 µg/mL
- Kd [2]: 0.34 nM
B1: <VEGF-ANG-2> TvAb-2441-bevacizumab-LC08 (bispecific antibody, human IgG1, kappa)
heavy: EVQLVESGGGLVQPGGSLRLSCAASGYTFTNYGMNWVRQAPGKGLEWVGWINTYTGEPTYAADFKRRFTFSLDTSKSTAYLQMNSLRAEDTAVYYCAKYPHYYGSSHWYFDVWGQGTLVTVSS[human IgG1 constant region left out]GGGGSGGGGSGGGGSGGGGSQVQLVESGGGVVQPGGSLRLSCAASGFTFSSYGMHWVRQAPGKCLEWVAVISYDGSNKYYADSVKGRFTISRDNSKNTLYLQMNSLRAEDTAVYYCAKPTLDIYMGYYYGMDVWGQGTTVTVSSGGGGSGGGGSGGGGSGGGGSQPVLTQPPSASGAPGQRVTISCSGFASNIGSNSVNWYQQVPGTAPKLLIYNNDQRPSGVPDRFSGSRSGTSASLAISGLQSEDEADYYCAAWDDSLNGPVFGCGTKLTVL
light: DIQMTQSPSSLSASVGDRVTITCSASQDISNYLNWYQQKPGKAPKVLIYFTSSLHSGVPSRFSGSGSGTDFTLTISSLQPEDFATYYCQQYSTVPWTFGQGTKVEIKRTVAAPSVFIFPPSDEQLKSGTASVVCLLNNFYPREAKVQWKVDNALQSGNSQESVTEQDSKDSTYSLSSTLTLSKADYEKHKVYACEVTHQGLSSPVTKSFNRGEC
notes: Tetravalent; scFv at C-terminus of the heavy chain, (G4S)4 linkers, VH44/VL100 disulfide
